Measured values as given in the supplement of paper PMC3334620.
The full ranking holds about 33,000 sequences; the median of “E-score (-0.5 to 0.5)” is about -0.043, and the highest 2% start at about 0.37. This is one part of the list.

What follows are sequences tested against T1, Upc2 (UniProt Q12151) (assay: PBM E-score (8-mer binding enrichment) (E-score (-0.5 to 0.5)); higher = stronger / more preferred TF binding; most listed sequences are background and not binding sites). Details: protein concentration: 200 nM; construct: GST-full length.
T1 sequence: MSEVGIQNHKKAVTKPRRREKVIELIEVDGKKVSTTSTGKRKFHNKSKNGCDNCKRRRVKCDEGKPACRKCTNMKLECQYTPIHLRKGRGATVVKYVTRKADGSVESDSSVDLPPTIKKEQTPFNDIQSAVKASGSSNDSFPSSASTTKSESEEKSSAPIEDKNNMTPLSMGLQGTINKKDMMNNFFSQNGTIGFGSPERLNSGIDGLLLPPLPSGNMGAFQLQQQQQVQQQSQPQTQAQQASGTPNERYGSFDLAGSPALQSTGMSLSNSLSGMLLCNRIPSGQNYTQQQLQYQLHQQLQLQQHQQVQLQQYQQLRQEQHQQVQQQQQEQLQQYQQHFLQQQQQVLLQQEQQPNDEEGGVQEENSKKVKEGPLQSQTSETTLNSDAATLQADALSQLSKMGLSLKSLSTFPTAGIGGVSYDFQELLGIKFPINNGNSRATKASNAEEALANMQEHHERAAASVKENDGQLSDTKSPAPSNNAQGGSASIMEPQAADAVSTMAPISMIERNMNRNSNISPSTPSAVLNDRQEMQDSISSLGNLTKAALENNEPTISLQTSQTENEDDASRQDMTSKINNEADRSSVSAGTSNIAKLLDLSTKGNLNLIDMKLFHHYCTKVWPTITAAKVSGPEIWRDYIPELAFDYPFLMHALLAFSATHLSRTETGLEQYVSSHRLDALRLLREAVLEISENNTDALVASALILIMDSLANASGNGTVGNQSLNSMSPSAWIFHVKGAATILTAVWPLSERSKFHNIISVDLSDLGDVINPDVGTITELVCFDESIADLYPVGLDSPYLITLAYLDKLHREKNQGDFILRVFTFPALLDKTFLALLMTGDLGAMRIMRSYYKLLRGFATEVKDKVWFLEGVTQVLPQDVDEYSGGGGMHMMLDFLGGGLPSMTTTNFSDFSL
Method in brief: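 Each ungapped eight-base word and its reverse complement, pooled, received an E-score from the Universal PBM Analysis Suite. Underlying scans, normalised with masliner, recorded fluorescent anti-GST bound to GST-tagged yeast transcription factors. These were applied at about 100-200 nM to universal all-10-mer Agilent arrays double-stranded by primer extension.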

Sequence | PBM E-score
ACCAACAC | 0.0529
CCGTCCAA | -0.133
GGGCGGGA | 0.145
AGCGTTTG | 0.149
CGGAGTGC | -0.0805
ACAGGGGT | -0.166
AGCAGCAA | -0.222
CGAACGCA | 0.162
GCGCCTCA | -0.142
ATCGCGGC | 0.0113
CCATGCAG | -0.255
ACATTTCT | -0.0103
AGGGCAAC | -0.339
CACTCAAG | -0.112
AACCGGCA | -0.151
AAAACAAC | -0.103
CAGGTTGA | -0.0492
CCTCCATC | 0.0545
CACATAGG | -0.207
AAAATAAG | 0.0102
ATTGCTTC | 0.0491
GCTTCTAA | -0.126
CGCAACAA | -0.03
CCCTTAAA | 0.0133
ATTTCCAG | -0.0385

Sequence | PBM E-score
CCCATATC | -0.0647
TCGTTACA | 0.294
GGTAGGGA | -0.155
AAGGCCGG | -0.119
CAAAGTTA | -0.0595
ATCTTAAT | -0.0519
CTGGTTAC | -0.118
CAAGCGAA | 0.269
TCGGCCCA | -0.13
ATTTGGGG | -0.0428
GGCTCGGA | 0.0556
GAGGCGAC | -0.104
AGCAACTA | -0.0306
CCTTAGTC | -0.0974
AATCCATC | -0.0888
CTGTAGCA | -0.108
GCTTAGAA | 0.0693
ATTTCCCC | -0.221
GATGCACA | 0.127
GTTGTCGA | -0.0686
ATGATGTA | 0.00759
AGCACATA | -0.0959
ACTCGGGC | -0.171
AGGTGGTG | -0.0977
CTATAGAA | -0.16

Sequence | PBM E-score
GATGATCC | 0.0445
CTAACCGC | 0.0621
CCGGAGAG | -0.151
ATGCTTTC | -0.0854
GGTATTTA | -0.0648
AAAAGAAG | -0.0315
ACGGACCG | 0.177
GAACTTGA | 0.0615
TAGTCGGA | -0.0269
CTAACTCC | -0.182
TTATCGAA | 0.0432
ATCGTAGA | 0.337
AACGAAAA | 0.368
AACGAGAA | 0.422
CTTACGTA | 0.235
AACTTTCC | -0.281
TACCTACA | -0.0678
ATAAGAAA | 0.17
ACTAACCG | 0.219
ACCCGAGT | 0.199
ACAAAGCG | 0.0821
GATTAACA | -0.00617
ACGGAGAC | 0.0586
GCTAGCGA | -0.0392
AAGTTATA | 0.0992

Sequence | PBM E-score
ACCGAACC | 0.0637
ATGCTAGA | -0.0503
GGCGTATA | 0.434
ATTAGCAG | -0.108
AGTTTCGA | -0.0693
CCATTGGC | -0.329
AGACCTGG | -0.256
TCATTAGA | 0.0189
TCGCGCCA | -0.249
ATTACTAC | 0.12
ACAGCCGT | 0.109
CGTAGGAA | 0.144
ATTACCGG | -0.197
TCTAGTAA | -0.148
CATCCTGG | -0.153
ATGGATGG | -0.102
CGGCTCGA | 0.0304
AACCCCAG | -0.275
AACTGCGA | -0.0449
ATTTTTCC | 0.17
CTGGAAGA | -0.149
AACCCCCG | -0.138
GCTGCTGA | -0.0134
AGGTGCGA | 0.0768
AGAAAGAA | 0.0569

Sequence | PBM E-score
CAAGCTGG | -0.157
TAGATAGA | -0.103
TCATTCGA | -0.0636
CCAACGCC | -0.159
ATTGCAAC | -0.00203
AAACCGGG | -0.0509
TACTGATA | 0.144
AGTCACAC | -0.309
CTTTTTGC | -0.065
AGATGTAG | -0.265
ATTTAGAC | 0.00862
GCGCGTAA | 0.272
CTAGTTCA | -0.048
AGGGATAG | -0.143
AGATCGGC | -0.205
AACTTTCA | 0.0447
CTGACCGA | 0.16
GCTCTCCA | -0.312
AAAGAACC | -0.0458
GCAGCGTA | 0.182
AAAGGCCT | -0.15
AGGACACG | -0.0442
AATTATCA | 0.0257
AACTGGAC | -0.116
ATACGCAA | 0.37

Sequence | PBM E-score
ACTGGGGA | -0.196
AGTCTTGA | -0.304
AAGAAGCG | -0.0452
CGATTCAC | 0.0105
GAACGAGC | 0.465
AGGGTCGC | -0.0118
AATAAGCA | -0.0284
CCGGGCTC | -0.104
ACGCCAAG | 0.0663
GATGGTGA | -0.143
CCCACCAC | -0.0738
AACCTCCA | -0.169
GACTGCGA | -0.259
GCGGGAAC | 0.0362
ATGCCTAA | -0.192
CTAACGTC | -0.127
CGCTGGAG | -0.0143
CACGAACG | 0.343
ACCGCCTG | -0.234
ATCTACCA | -0.0611
GAGTGACA | -0.0634
GAGGACTA | -0.136
CTGCGTCC | -0.13
CAATCGGG | -0.114
GGCTTTAA | -0.0321

Sequence | PBM E-score
ATCGTGAG | -0.165
CGCGTCAA | 0.0382
ATACTAAA | 0.216
AGCCAAAC | 0.141
CGAATCTC | 0.195
ATCCTGTA | 0.146
AGCAAATG | -0.15
GGCATTAC | -0.107
TAGAGACA | -0.0532
GAGATCTC | 0.31
CACGAGGA | 0.0675
CCGAGCTA | 0.0202
CATGCAAG | -0.253
AGATGAGC | -0.0614
TATGTAGA | -0.216
GCACGCAA | 0.0246
CGCCTAGC | -0.225
CGCCTACA | -0.122
AGTAACAA | -0.0794
CTACAGAG | -0.0762
GGAATATA | 0.0466
ATGGTGGC | -0.417
GGAACGGA | 0.312
AAAAGTGA | -0.0937
GAGTCATA | -0.0122

Sequence | PBM E-score
ATATTTAC | 0.216
GTGATTCA | -0.264
CGGCGGGC | -0.0751
GGTAGTTA | -0.14
ACGCTGGG | -0.275
AGGCAAGG | -0.212
CGGCAGGC | 0.0144
ACATATAC | 0.227
ACTGGGAT | -0.0814
ATGGACGG | -0.0867
CGTACGAC | 0.449
CAGATCAC | -0.266
GGAGTCGA | -0.151
CGTAATTA | 0.205
CGATGGAG | 0.0869
CATCAAAG | -0.286
AAACCTTA | 0.144
AAACTATA | 0.093
ACTACGTG | -0.11
CAGTCCGC | -0.225
CACCGTGG | -0.191
AGCTAAAG | -0.0646
GGCTGCGA | -0.00438
CCGCTGCC | -0.111
CAAATACC | -0.0941

Sequence | PBM E-score
ATGCGAGA | 0.246
ACGACGCC | 0.306
ATTTTACA | 0.0754
CTCCCCTA | -0.122
CGCTTGCA | 0.0574
CGCCGCAG | -0.242
TAGCCTCA | -0.164
CTCAATCC | -0.0558
GGCGACTA | -0.142
ACGCCAGC | -0.0365
TCCCGACA | -0.0207
AGACTTCA | -0.0888
AATAAGAA | 0.0214
AAAGAATA | 0.091
GTCCTCTA | -0.184
ATGGGCCC | -0.0858
CAACGGAC | -0.127
CTTCGTGC | -0.0549
AGGGCGTC | -0.0669
